± gives the standard deviation of the averaged measurements. This is one part of the list.

In this assay the test system is PfAP2-EXP AP2 domain (GST-tagged). The assay can be described thus: gcPBM binding intensity (ln(normalized median fluorescence intensity)); higher = stronger DNA binding. In short, it runs like this: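 An Agilent 4 × 180k array of primer-extended double-stranded 36-bp intergenic genomic probes, with negative controls, was incubated for 1 h with GST-tagged P. falciparum DNA-binding domains expressed in E. coli. Alexa488 anti-GST antibody detected bound protein, scanned at 488 nm. Binding intensity is the highest Masliner-normalised natural-log median intensity across replicate spots of either probe orientation.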
As to “ATATATATATATATATGTACACATATATATACTCAC [XGTACX_site8043]”, the “gcPBM binding intensity (ln)” value was 10 ± 0.4.
The same measure for “TGTATATTTTAGTGATGTACTAATATTATTACTAAT [XGTACX_site3952]”: 8.29 ± 0.28; for “ATATGTTTATTTATTTGTACTTATCATATAATAACA [XGTACX_site5486]”: 8.54 ± 0.35.
The value for “TTAGAAAGAATGTATTGTACATATATATTATATATA [XGTACX_site7045]” was 8.3 ± 0.32; that for “TGCTTAGCACACTATCTACTTCCTTTGTTTCATAAA [GTGCAC_negctrl_site495]” was 8.88 ± 0.45; that for “TTCATTTATATAATCACACATTTTATCATCTATGTT [CACACA_site4327]” was 8.66 ± 0.45.
The value for “GGTTCTAAAAAGGGAAGTACATGGAAAAATATAAAT [XGTACX_site4639]” was 8.86 ± 0.54; that for “GCATGCACGGAAAAAAGTACATATATAAATTTGGTT [XGTACX_site3393]” was 9.2 ± 0.23; that for “ATCGTTATATAATGTTGTACTTGTTATATATATATA [XGTACX_site7582]” was 9.88 ± 0.5.
For “AAAATTATTATGAAAAGTACAAATATGTAAACATAC [XGTACX_site5517]”, the “gcPBM binding intensity (ln)” value was determined as 8.45 ± 0.24.
The same measure for “TTTTTTAAATATATTTGTACATATGAAATAAAGATA [XGTACX_site3841]”: 8.61 ± 0.37; for “AAAATTTAGCAAAGGTGTACAAAAGATAATTAGAGT [XGTACX_site3467]”: 9.24 ± 0.42; for “AATATATTTTGATATGAACAATTAATAATTTCAAAT [GTGCAC_negctrl_site170]”: 8.28 ± 0.42.
The same measure for “TTTTTCACATCTATAAATCATCTAATCAATATTTTT [GTGCAC_negctrl_site444]”: 8.3 ± 0.42; for “ATTCTAATTAGTAAAGTGCAGATAAAATGATGCCCT [GTGCAC_site9578]”: 8.43 ± 0.25.
The same measure for “AAATTTTAATTAGGAACACACATATATATATATATA [CACACA_site5673]”: 10.2 ± 0.24.
As for “TTATATATAGATCACACACACACACCGGTTTTAAAA [CACACA_site4220]”, the “gcPBM binding intensity (ln)” value worked out at 8.82 ± 0.49.
The same measure for “TAAATTTATGGACACACACACATATATATATATATA [CACACA_site4620]”: 10.2 ± 0.47; for “TCTTTTTTAATATAATATATTTTTATTAAGTAAATC [TGCATGCA_negctrl_site408]”: 8.05 ± 0.23.
The same measure for “TATTTATCTATATATTGTACTTATTAGTCTTAATGT [XGTACX_site4242]”: 8.54 ± 0.66.
The value for “ATTTTTTATGAAAATAAACACACGATTTATTATATA [CACACA_site1312]” was 8.14 ± 0.33; that for “TTTTCAGAAAAGAGAAACTTTATTTTTCACAACCGA [TGCATGCA_negctrl_site389]” was 8.21 ± 0.38; that for “TGTAGTCATTAGTCAAATTAGAATTAAATATATATT [GTGCAC_negctrl_site643]” was 8.21 ± 0.5.
Take “TAAAAAATTATTAAACGTACGAGACTTTTTATCAGT [XGTACX_site2219]”: the “gcPBM binding intensity (ln)” value came to 8.46 ± 0.34.
The same measure for “CATAAAAATGGATACACACACATAATATATTTATAT [CACACA_site7669]”: 8.61 ± 0.4; for “ACAATATATTCATATTGTACATAAAATAAGGCTAAC [XGTACX_site6728]”: 8.88 ± 0.28.
As for “TATATTTAAATTCTTTCAAATCATGTTGTAATTTTT [CACACA_negctrl_site1349]”, the “gcPBM binding intensity (ln)” value is 8.39 ± 0.47.
Turning to “ATACACTTAATATTATGTACATATATAAAAAAAATA [XGTACX_site1500]”, the “gcPBM binding intensity (ln)” value was determined as 8.57 ± 0.42.
The value for “AGGAATATCGAAAACTGTACTTGTATGTTTCATAAA [XGTACX_site6143]” was 8.46 ± 0.43; that for “TATAAAAATAATATTACACACATGTAAAATGGGGGT [CACACA_site9071]” was 9.38 ± 0.29; that for “AATTGTATGTATGCCTGTACATATGTCTATCTTAAG [XGTACX_site1927]” was 8.55 ± 0.42.
With “ATTTATTTATTTTTTTGTACTTATAATTTTTATTAT [XGTACX_site2656]”, the “gcPBM binding intensity (ln)” value turned out to be 8.7 ± 0.44.
In the case of “TATTTTATATGAGGCACACAAATTTTAATTGTTATT [CACACA_site725]”, the “gcPBM binding intensity (ln)” value turned out to be 8.18 ± 0.33.
The same measure for “TGAATTATAAATTATAGTACTTTATAATATGAACAT [XGTACX_site2317]”: 8.4 ± 0.36; for “ATATATAATAAATACACACACATGTATTTATAAATA [CACACA_site5135]”: 8.34 ± 0.33.
The same measure for “ATATAAATAAATTAGTGAAAAAAAAAAAATTTTTTT [CACACA_negctrl_site945]”: 8.43 ± 0.52.
The value for “AATTAACAAAGACACACACACACACGCACAAAAAAA [CACACA_site6388]” was 8.54 ± 0.16; that for “TTTAAAAAAATATATACACACATATATATATATATA [CACACA_site617]” was 10.1 ± 0.38; that for “CTCCATATGAAACACACACACAAATGAAAAAAATAT [CACACA_site3018]” was 8.88 ± 0.61.
As for “ATAGAAATAAAATAAAATAAAAAAAAAATAATGAAA [CACACA_negctrl_site1565]”, the “gcPBM binding intensity (ln)” value was 8.64 ± 0.43.
The value for “ATGATCATAAGACACACACACAAAAAAAAAAAAAAA [CACACA_site6936]” was 8.22 ± 0.45.
The value for “CATATATATATATATTGTACAAGATTGTTTTTTTAT [XGTACX_site3913]” was 8.76 ± 0.35; that for “TCTGTGCACGCATGAAGTACAAAAAAGGTTTCCAGT [XGTACX_site5049]” was 9.19 ± 0.18; that for “TATATTTTTTTAATATGTACATATATATATAAAACA [XGTACX_site2171]” was 8.57 ± 0.13.
The value for “CTATATACTAAATGCACACTTATATATTTATATATA [CACACA_site2454]” was 8.47 ± 0.13; that for “TAATTTTTTTTTTTTTTTTTTTTTTTTTTTTTCCTT [CACACA_negctrl_site1095]” was 7.8 ± 0.61; that for “GGAATAATATAAAACACACACATAAATATAAATATA [CACACA_site3376]” was 8.81 ± 0.35.
“ATGAACAAAATGTAATGTACGAATAATTATTCATAT [XGTACX_site4812]”: the “gcPBM binding intensity (ln)” value amounted to 8.61 ± 0.3.
The value for “TTTTATTCCTATTTATTTATATTTTTGTCTTATATC [CACACA_negctrl_site125]” was 8.8 ± 0.43; that for “TTAAGAATATCTACATGTACATACCAAAGAAATACA [XGTACX_site3125]” was 8.78 ± 0.43.
Regarding “TAATTTTTATTTATAATAATATATGACATATATCCA [XGTACX_negctrl_site359]”, the “gcPBM binding intensity (ln)” value was found to be 8.1 ± 0.35.
As to “AAAAAAAAGTTCTACACACACAAAAAAATATTTTTT [CACACA_site2309]”, the “gcPBM binding intensity (ln)” value is 8.48 ± 0.59.
On to “TATAGACAAACACATACATGCATACATACATACATA [TGCATGCA_site273]”, for which the “gcPBM binding intensity (ln)” value was determined as 8.93 ± 0.35.
The same measure for “GTGTGCTTTTTACGAGTGCAAGTATTTTGGTGGTTA [GTGCAC_site9496]”: 8.98 ± 0.099.
The same measure for “GTACACATATAATATACACACAACAAATATGCACAT [CACACA_site1010]”: 8.94 ± 0.3.
